# These are yes or no findings as the source states them, for the method shown. In cells and extracts the contact can be indirect. Some results given as binding are weak or reduced against the parent protein; the word gives no strength.
# Sequences of proteins named here, by UniProt entry; tags and fusion partners are left off. A change or cut given only in a name is not applied to a line headed by its entry. A line that says so, or that is headed by a name, gives the form on record, which may keep a tag or linker.
# UniProt Q13485: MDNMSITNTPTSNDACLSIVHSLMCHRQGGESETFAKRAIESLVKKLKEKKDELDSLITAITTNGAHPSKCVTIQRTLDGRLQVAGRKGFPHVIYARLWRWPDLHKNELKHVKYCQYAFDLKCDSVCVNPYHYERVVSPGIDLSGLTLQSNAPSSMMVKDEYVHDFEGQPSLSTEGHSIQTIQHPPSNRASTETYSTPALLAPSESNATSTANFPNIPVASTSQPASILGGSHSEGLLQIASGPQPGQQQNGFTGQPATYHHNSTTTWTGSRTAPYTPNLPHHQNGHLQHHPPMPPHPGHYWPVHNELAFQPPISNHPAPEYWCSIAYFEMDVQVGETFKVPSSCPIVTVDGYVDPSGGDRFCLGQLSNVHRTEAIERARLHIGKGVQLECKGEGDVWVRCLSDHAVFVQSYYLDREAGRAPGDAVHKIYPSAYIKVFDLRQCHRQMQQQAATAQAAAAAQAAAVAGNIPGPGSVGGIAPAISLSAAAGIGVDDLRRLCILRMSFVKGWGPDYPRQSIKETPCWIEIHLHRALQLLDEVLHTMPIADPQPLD
# Flag-TurboID-SMAD4-2LA (Q13485, form named): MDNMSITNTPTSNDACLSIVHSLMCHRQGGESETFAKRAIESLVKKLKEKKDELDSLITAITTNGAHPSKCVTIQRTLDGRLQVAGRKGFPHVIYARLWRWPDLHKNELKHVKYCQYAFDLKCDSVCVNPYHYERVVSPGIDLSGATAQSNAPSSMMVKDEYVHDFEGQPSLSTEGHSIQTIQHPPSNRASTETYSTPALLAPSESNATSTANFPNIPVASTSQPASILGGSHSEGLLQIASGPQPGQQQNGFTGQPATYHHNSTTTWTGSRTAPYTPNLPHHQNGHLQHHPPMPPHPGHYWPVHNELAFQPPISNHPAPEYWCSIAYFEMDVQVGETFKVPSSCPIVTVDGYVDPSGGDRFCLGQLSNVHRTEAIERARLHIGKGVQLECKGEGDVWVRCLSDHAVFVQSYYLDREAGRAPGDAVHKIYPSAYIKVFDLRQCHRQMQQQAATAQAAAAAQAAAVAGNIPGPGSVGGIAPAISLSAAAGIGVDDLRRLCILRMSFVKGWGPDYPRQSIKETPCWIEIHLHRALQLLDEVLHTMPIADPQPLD
# UniProt P09874: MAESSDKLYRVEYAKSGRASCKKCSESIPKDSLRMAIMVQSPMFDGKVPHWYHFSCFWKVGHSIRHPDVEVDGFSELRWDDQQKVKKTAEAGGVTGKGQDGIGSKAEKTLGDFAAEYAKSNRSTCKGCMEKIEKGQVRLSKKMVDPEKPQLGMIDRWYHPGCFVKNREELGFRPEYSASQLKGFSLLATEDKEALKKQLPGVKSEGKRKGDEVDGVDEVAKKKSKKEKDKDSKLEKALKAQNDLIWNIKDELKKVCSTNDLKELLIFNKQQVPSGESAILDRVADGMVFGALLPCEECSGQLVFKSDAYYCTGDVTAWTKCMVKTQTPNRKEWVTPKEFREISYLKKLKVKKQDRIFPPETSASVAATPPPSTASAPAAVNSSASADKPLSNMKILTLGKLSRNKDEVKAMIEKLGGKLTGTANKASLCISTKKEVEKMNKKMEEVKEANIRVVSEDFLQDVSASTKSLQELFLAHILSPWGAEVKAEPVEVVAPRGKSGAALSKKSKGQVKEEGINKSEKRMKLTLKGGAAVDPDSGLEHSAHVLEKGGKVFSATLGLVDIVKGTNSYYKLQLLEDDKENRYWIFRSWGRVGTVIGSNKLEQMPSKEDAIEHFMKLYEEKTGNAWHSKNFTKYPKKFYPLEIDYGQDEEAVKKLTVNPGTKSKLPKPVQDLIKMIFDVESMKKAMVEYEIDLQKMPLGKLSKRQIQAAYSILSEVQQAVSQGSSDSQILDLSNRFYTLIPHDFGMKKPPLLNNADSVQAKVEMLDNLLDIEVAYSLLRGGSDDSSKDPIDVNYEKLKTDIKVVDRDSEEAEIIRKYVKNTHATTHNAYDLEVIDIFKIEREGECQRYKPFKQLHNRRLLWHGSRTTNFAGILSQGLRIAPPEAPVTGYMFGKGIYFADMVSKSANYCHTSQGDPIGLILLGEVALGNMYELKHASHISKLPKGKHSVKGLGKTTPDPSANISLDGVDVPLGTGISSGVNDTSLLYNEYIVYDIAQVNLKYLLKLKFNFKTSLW
# Experiments:
# SMAD4 C71Y mutant = SMAD4 C71Y mutant (UniProt Q13485); experiment: co-IP; HEK293FT cells with SMAD4 and PARP1 constructs (WT and mutants); lysis in NETN buffer (20 mM Tris-HCl pH 8.0, 100 mM NaCl, 1 mM EDTA, 0.5% NP-40), affinity beads overnight at 4 °C; bait of each panel not given
# SMAD4 L57S mutant = SMAD4 L57S mutant (UniProt Q13485); experiment: as above
# SMAD4 A118V mutant = SMAD4 A118V mutant (UniProt Q13485); experiment: as above
# SMAD4 L109Q mutant = SMAD4 L109Q mutant (UniProt Q13485); experiment: as above
# SMAD4 (WT) = SMAD4 (WT) (UniProt Q13485); experiment: as above
# SMAD4 A96D mutant = SMAD4 A96D mutant (UniProt Q13485); experiment: as above
# SMAD4-2LA mutant = SMAD4-2LA mutant (UniProt Q13485); experiment: as above
# Flag-TurboID-SMAD4-2LA = Flag-TurboID-SMAD4-2LA (UniProt Q13485); experiment: co-IP; HEK293FT cells transfected with Flag-TurboID-SMAD4-2LA, treated with irradiation and biotin for indicated time points; SMAD4 co-IP, blot for endogenous PARP1; NETN buffer, 4 °C overnight
binding (SMAD4 C71Y mutant),binding (SMAD4 L57S mutant),binding (SMAD4 A118V mutant),binding (SMAD4 L109Q mutant),binding (SMAD4 (WT)),binding (SMAD4 A96D mutant),binding (SMAD4-2LA mutant),binding (Flag-TurboID-SMAD4-2LA),Substance
binds,no binding,no binding,no binding,binds,binds,binds,–,PARP1 (WT) (from UniProt P09874 1-1014)
–,–,–,–,binds,–,–,–,PARP1-E988K mutant (from UniProt P09874 1-1014)
–,–,–,–,–,–,–,binds,endogenous PARP1 (from UniProt P09874 1-1014)
